# Measured values published in patent publication US20190209704A1, “NOVEL ANTIBODY-DRUG CONJUGATES AND RELATED COMPOUNDS, COMPOSITIONS AND METHODS OF USE” (IGENICA BIOTHERAPEUTICS, INC., priority 2014, published 2019).
# T1: CD98 purified antigen (Homo sapiens, UniProt P08195)
# T1 sequence (P08195 1-529): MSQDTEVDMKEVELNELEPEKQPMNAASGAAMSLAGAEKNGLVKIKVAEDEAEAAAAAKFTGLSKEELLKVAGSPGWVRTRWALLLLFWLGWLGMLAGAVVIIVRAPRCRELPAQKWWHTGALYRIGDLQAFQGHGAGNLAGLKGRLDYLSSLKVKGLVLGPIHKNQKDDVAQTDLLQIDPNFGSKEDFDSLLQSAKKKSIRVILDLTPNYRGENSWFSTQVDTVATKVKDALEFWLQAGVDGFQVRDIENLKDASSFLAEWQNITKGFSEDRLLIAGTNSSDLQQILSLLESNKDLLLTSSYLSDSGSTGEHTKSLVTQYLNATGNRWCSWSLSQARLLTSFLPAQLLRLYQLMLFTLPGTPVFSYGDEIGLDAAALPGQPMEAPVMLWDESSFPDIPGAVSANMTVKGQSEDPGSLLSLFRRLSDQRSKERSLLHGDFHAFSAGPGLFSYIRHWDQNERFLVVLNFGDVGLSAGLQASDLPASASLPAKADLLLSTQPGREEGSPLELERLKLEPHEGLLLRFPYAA
# B1: IGN523: exemplary anti-CD98 antibody, VH SEQ ID NO: 3, VL SEQ ID NO: 4 (antibody, V domains shown)
# VH: MEWSWVFLFFLSVTTGVHSQVQLVQSGAEVKKPGSSVKVSCKASGNAFTNYLIEWVRQAPGQGLEWMGVINPGSGITNYNEKFKGKATITADKSTSTAYMELSSLRSEDTAVYYCSGSANWFAYWGQGTLVTVSS
# VL: MSVPTQVLGLLLLWLTDARCDIVMTQSPDSLAVSLGERATINCKSSQSLLYSSNQKNYLAWYQQKPGQPPKLLIYWASTRDSGVPDRFTGSGSGTDFTLTISSLQAEDVAVYYCQRYYGYPWTFGGGTKVEIK
# modifications: heavy chain variable region sequence of an exemplary anti-CD98 antibody designated as IGN523; light chain variable region sequence of an exemplary anti-CD98 antibody designated as IGN523
# Target: T1, CD98 purified antigen
# Test: antigen binding affinity via SPR, CD98
# Conditions: Table 7
molecule,measurement,value
B1,Kd,0.14 nM
